In the supplement of paper PMC3334620:
Whole data set: some 33,000 sequences, median “E-score (-0.5 to 0.5)” near -0.016, cut for the highest 2% near 0.32. The list shows a part of the results.

These sequences were tested against T1, Stp1 (UniProt B3LFK1) (assay: PBM E-score (8-mer binding enrichment) (E-score (-0.5 to 0.5)); higher = stronger / more preferred TF binding; most listed sequences are background and not binding sites). Details: protein concentration: 200 nM; construct: GST-full length.
T1 sequence: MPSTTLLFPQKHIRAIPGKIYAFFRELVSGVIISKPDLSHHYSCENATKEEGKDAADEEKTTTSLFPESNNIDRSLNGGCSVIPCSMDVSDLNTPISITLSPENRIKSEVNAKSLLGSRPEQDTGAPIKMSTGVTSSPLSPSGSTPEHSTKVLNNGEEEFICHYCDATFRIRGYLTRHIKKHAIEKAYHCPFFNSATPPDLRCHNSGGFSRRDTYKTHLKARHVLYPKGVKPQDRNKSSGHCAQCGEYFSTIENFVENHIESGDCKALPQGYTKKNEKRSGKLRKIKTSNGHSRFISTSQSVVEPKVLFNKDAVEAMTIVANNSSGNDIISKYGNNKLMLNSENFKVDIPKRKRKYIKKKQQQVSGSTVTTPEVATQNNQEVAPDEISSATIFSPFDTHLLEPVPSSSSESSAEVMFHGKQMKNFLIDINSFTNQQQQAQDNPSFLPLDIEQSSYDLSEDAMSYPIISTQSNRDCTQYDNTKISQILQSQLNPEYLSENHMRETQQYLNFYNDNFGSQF
Method in brief: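 E-scores (a modified Wilcoxon-Mann-Whitney statistic) were assigned by the Universal PBM Analysis Suite to every ungapped eight-base word pooled with its reverse complement. The input came from universal all-10-mer Agilent arrays made double-stranded by primer extension and probed with GST-tagged yeast transcription factors at about 100-200 nM. Fluorescent anti-GST detected bound protein, and masliner normalised the scans.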

| Sequence | PBM E-score |
| --- | --- |
| ACTAGGTG | -0.298 |
| TGCCTAAA | 0.0632 |
| CAACGCTG | -0.0111 |
| AGCGTTTA | -0.127 |
| CGCTGCCG | 0.264 |
| TAACTAAA | -0.0145 |
| GACGGGCC | -0.0674 |
| CCGCGGCC | 0.325 |
| AGAATCTG | -0.00098 |
| GCTAAAAA | 0.121 |
| CACGCATA | -0.1 |
| ACGTCTTA | -0.132 |
| CAGAGTAC | 0.177 |
| TCAGCCCA | -0.171 |
| CATCACTC | -0.0239 |
| AGTGAGCC | -0.0302 |
| GATCAAAC | 0.00027 |
| AGTTGACG | 0.0138 |
| GAAGCCTA | -0.0763 |
| CTTTAAAG | -0.0166 |
| CATGTCAG | -0.0759 |
| CTGTCACC | -0.218 |
| GCTTGGCC | -0.0939 |
| CTAGAATC | -0.0796 |
| CGGGGCAA | -0.0113 |

| Sequence | PBM E-score |
| --- | --- |
| ACGACTGG | -0.13 |
| CCTGCCTC | -0.102 |
| CCCGTACG | 0.119 |
| CCTTCAAC | -0.14 |
| CGTTTCAC | 0.164 |
| ACACGAAC | 0.0564 |
| CACTAACA | 0.0786 |
| ATCGTCAT | 0.0661 |
| AGTAAACC | -0.191 |
| CGACGTCA | -0.163 |
| CAATTAAA | 0.156 |
| CGCTTGCC | 0.0655 |
| CACGGACG | 0.164 |
| TTAGAGAA | -0.248 |
| CAGGATCC | -0.0149 |
| AATTTCCT | -0.0217 |
| AGACTATA | 0.152 |
| GAACCCCC | -0.372 |
| AATAGTCC | -0.165 |
| ATGCCTCC | -0.0159 |
| CCCTCAGA | -0.22 |
| GGGAGGAC | -0.15 |
| ACCGAAGT | -0.0602 |
| CGGACACA | 0.0654 |
| GCAACAAC | 0.049 |

| Sequence | PBM E-score |
| --- | --- |
| CGAAATAA | 0.206 |
| TCACTTCA | -0.024 |
| ATGCAATA | 0.04 |
| CGAATTCC | 0.0428 |
| AGTCCCAC | -0.312 |
| AAAGCTTA | 0.0842 |
| ACAACCAA | 0.0505 |
| GAGCATAC | -0.0997 |
| AGCATCCT | -0.245 |
| AGACATCT | -0.0861 |
| GATTCCCA | -0.0824 |
| AAGCGTTC | -0.222 |
| ATCTCCAC | -0.0548 |
| AATAAAAT | 0.199 |
| GCCTGGCA | -0.25 |
| GGTGTAGA | -0.171 |
| AGCACCGG | -0.188 |
| ACTCGTTA | -0.159 |
| AAACTAAC | 0.155 |
| AAGACACC | -0.0764 |
| ATTAGTCC | 0.128 |
| ACAAATAT | 0.16 |
| GGAGCGTA | -0.174 |
| AGACAACA | 0.0979 |
| TCTCTCAA | 0.215 |

| Sequence | PBM E-score |
| --- | --- |
| TCAGCGCA | -0.183 |
| GGCGGTAC | 0.0425 |
| GATGCGCA | 0.0121 |
| ATGTGTGG | 0.0153 |
| AAGAGGAA | 0.059 |
| AGGTTTGA | -0.138 |
| ACATATTA | 0.198 |
| CTGGTAAG | 0.0996 |
| GATCGTAA | 0.0502 |
| AAAAGATG | 0.132 |
| CAGAACCA | -0.132 |
| CCGAGATC | -0.175 |
| ATTACAGC | -0.0296 |
| CGCCAGAG | -0.127 |
| CTGCAAAA | 0.0123 |
| AACGCGAT | -0.0792 |
| ATTAGAAT | -0.0124 |
| ACGCATTG | 0.0406 |
| GACGTCGC | -0.252 |
| CATGGGCC | -0.107 |
| AAAACCTT | -0.0164 |
| GACAAGAA | 0.137 |
| CAAGGTTC | -0.124 |
| CCCAACTC | -0.0439 |
| GTCCCGAC | -0.187 |

| Sequence | PBM E-score |
| --- | --- |
| ACCGACGA | -0.0695 |
| GTGCTGAA | -0.117 |
| GGAAGTAC | 0.0967 |
| ATATCGGC | 0.0169 |
| CTATCCTC | -0.165 |
| TACCAGTA | 0.155 |
| ATATATCC | 0.285 |
| CCCTTCCG | -0.179 |
| AGGTAGAT | -0.14 |
| ACCGCGGT | -0.3 |
| GGGTGGAA | -0.31 |
| GGTCGTAC | -0.229 |
| GAAGACTC | -0.121 |
| TATTAAAA | 0.279 |
| CATTAGGA | -0.00507 |
| ACTGTTAA | 0.154 |
| CTCTAGAG | -0.0135 |
| ACAGCTCT | -0.306 |
| AACAGTAA | 0.00958 |
| AATCTGCG | 0.215 |
| ACTAGAGT | -0.167 |
| AAAAAGTA | 0.135 |
| CCCTTTAC | 0.0337 |
| ATCGAGGC | -0.0646 |
| AGGAAAAG | 0.214 |

| Sequence | PBM E-score |
| --- | --- |
| CCCTCTGA | -0.105 |
| GTCTGTCA | -0.00712 |
| GTTCAGCA | -0.137 |
| CATCGTCA | 0.0788 |
| GTGGGCCA | 0.0412 |
| CAACGATG | -0.0103 |
| GATGACAC | -0.0173 |
| ACGCCCGC | -0.0205 |
| AACTTTCG | -0.0408 |
| AATGGATA | -0.015 |
| AGATGTAT | 0.00406 |
| ACAGAATC | -0.135 |
| CACCTGCC | 0.055 |
| AATCGCGG | -0.0359 |
| GGTCCAAC | -0.156 |
| GATGTACA | 0.0467 |
| GACTGAAC | -0.24 |
| CGTCAGGA | 0.0248 |
| AAAGGAGT | -0.0421 |
| ACCTGGTG | -0.147 |
| ACACGTGA | 0.0836 |
| CTAGGTAA | -0.139 |
| TAACTCGA | 0.17 |
| AACTTGTC | -0.0164 |
| CAGTAGCG | -0.129 |

| Sequence | PBM E-score |
| --- | --- |
| ACCGCTAG | -0.186 |
| AAACGAGG | 0.0897 |
| ACTGCGAC | -0.101 |
| TATATTAA | 0.278 |
| AGTGCTCA | -0.198 |
| ACTTTAAA | 0.155 |
| AGACGTGG | 0.0144 |
| AAAGCGGC | 0.366 |
| CGAAGTTA | -0.0277 |
| CTCTCTTA | -0.0244 |
| CCTCACCG | 0.0522 |
| CCCCCGAC | -0.275 |
| CGAATAAC | -0.0575 |
| ACCGAGGT | -0.131 |
| GAGCCAGC | -0.17 |
| GTGTTCAA | 0.0543 |
| AATCCTGT | -0.037 |
| AAGTCCTC | -0.156 |
| CAAGCTCA | -0.182 |
| AGCGGTGG | -0.205 |
| CGATTATA | 0.169 |
| CGTTATTC | 0.0208 |
